# According to the supplement of paper PMC6531468:
# The other results are listed elsewhere or left out. Values come from read counts of a selection and are noisy. Each score is taken over the longer molecules that contain the sequence shown.
# System: IMP3 KH3-4
# Experiment: 6-mer SELEX enrichment z-score vs GST control; IMP3 is the RNA-binding protein IGF2BP3; higher = more enriched by binding
# Settings: construct: KH3-4 (377-579); SELEX round: R4
# Description: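 SELEX-seq with GST-tagged IMP3 KH3-4 (Pro377-Lys579) and an N40 RNA pool, round 4. 6-mer z-score of sequence-tag enrichment normalised to the corresponding GST SELEX round; RNA k-mers written as DNA (T for U).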
# IMP3 KH3-4, sequence (chain, as listed by the source): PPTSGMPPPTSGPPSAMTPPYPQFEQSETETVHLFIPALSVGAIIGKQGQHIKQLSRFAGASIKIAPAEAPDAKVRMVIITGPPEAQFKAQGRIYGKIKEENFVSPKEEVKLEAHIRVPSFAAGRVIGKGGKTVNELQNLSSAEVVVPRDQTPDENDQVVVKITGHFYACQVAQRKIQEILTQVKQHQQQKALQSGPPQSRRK
row,Sequence,6-mer SELEX enrichment z-score
1,GGCTAT,0.746
2,GCAACC,-0.922
3,GACGCA,-0.427
4,AGTGGC,0.935
5,ATTAAC,2.28
6,GGCCTT,0.222
7,GACGTC,-0.714
8,GCTCTT,0.114
9,GCGTAG,-2.99
10,ACTTCT,0.302
11,GCTAAC,-0.319
12,ATACGC,0.659
13,ACGGGC,-1.37
14,GCACAC,1.15
15,ATTCTC,0.263
16,TGTACA,0.314
17,AGTGCG,0.067
18,TAGACC,-0.786
19,GAGTGC,-0.591
20,ATCGCC,-0.317

row,Sequence,6-mer SELEX enrichment z-score
1,TCCAAG,-0.935
2,GTCGGC,1.87
3,CAAAGC,-1.73
4,AGATAC,0.459
5,AAGGTT,0.162
6,TGCCGT,-0.294
7,CCCAGT,-0.836
8,CCGAAC,-2.77
9,TTTACA,1.88
10,GTGTCT,-0.004
11,TCAGTT,0.442
12,CCGTTA,0.009
13,CCGTAG,-1.07
14,ATCTCG,-0.67
15,GACTAA,0.223
16,CGGACT,-0.353
17,GAGCTG,-1.26
18,CGTATC,-0.855
19,GGAAGA,0.922
20,AGTCAC,0.029
